Each structure is given as a SMILES string. Screen size: about 52,000 compounds; about 4,300 (8.3%) were called active. Rule as the data show it: active = survival mostly below about 52% (no sharp cut-off); inactive = mostly above about 56%. Some of the results follow.

In this assay the test system is DeltatarO mutant. The assay is described as follows: S. aureus survival, RN4220 and DeltatarO strains – OD600, teichoic acid synthesis inhibitors, primary screen (AID 463173). The note with it: S. aureus RN4220 wild type/DeltatarO growth, OD600, 18 h, stronger effect = lower value, screened at 18.75 µg/mL (by protocol).
With `CCc1cccc(NC(=O)CCS(=O)(=O)c2ccc3nc(C)sc3c2)c1`, the survival was inactive: 42%.

Take `CC1CCc2c(sc(NC(=O)COc3ccccc3C(C)(C)C)c2C#N)C1` (centres undefined): the survival was inactive: 67%.

Take `Cc1ccc(NC(=O)Cn2c(SCc3ccc(F)cc3)nc3cccnc32)cc1F`: the survival is inactive: 68%.

Consider `O=C(NCCCN1CCN(c2ccccc2F)CC1)c1cc2c(s1)-c1ccccc1OC2`, for which the survival was active: 11%.

Take `CCCCSCCCNC(=O)C1CCC(CNS(=O)(=O)c2c(C)cc(C)cc2C)CC1` (centres undefined): the survival is inactive: 76%.

Turning to `CCOc1ccc(CNC(=O)c2ccc3c(c2)nc2n3CCC(C)C2)cc1OC` (centres undefined), the survival was inactive: 73%.

Consider `CCNc1nc(=S)nc(NCc2ccccc2)[nH]1`, for which the survival is inactive: 57%.

Regarding `CC(=O)c1ccc(NC(=O)CCc2c(C)nn(-c3ccc(N4CCCCC4)nn3)c2C)cc1`, the survival is inactive: 84%.

Take `Cc1csc2nc(CCNS(=O)(=O)c3ccc(F)cc3)cn12`: the survival is inactive: 76%.

`COc1ccc(CNc2ncnc3c2cnn3-c2ccc(C)c(C)c2)cc1`: the survival was inactive: 120%.

For `O=C1C2CCc3[nH]c4ccccc4c3C2C(=O)N1Cc1ccccc1` (centres undefined), the survival is inactive: 90%.

Consider `NC(=O)N1CCCC1=O`, for which the survival was inactive: 60%.

As for `CC1=C(C(=O)OC2CCCCCC2)C(c2cccc(Cl)c2)CC(=O)N1` (centres undefined), the survival is inactive: 118%.

As to `CCCC1=Nc2cc(C(=O)N3CCC(C)CC3)ccc2Sc2ccc(C)cc21`, the survival was inactive: 97%.

For the compound `Cc1ccc2c(=O)c(C(=O)c3cccc(Cl)c3)cn(CC(=O)Nc3ccccc3C(F)(F)F)c2n1`, the survival is inactive: 73%.

With `Cc1nc2scc(C)n2c(=O)c1S(=O)(=O)Nc1cccc(C(F)(F)F)c1`, the survival is inactive: 83%.

Take `CCOc1ccc(-n2nc3ccc(NC(=O)c4ccc(-c5cccc(Cl)c5)o4)cc3n2)cc1`: the survival was active: 45%.

In the case of `Cc1nc2cc(-c3ccccc3)sc2c(=O)n1N`, the survival was inactive: 97%.

On to `CN1CCc2nc3sc(C(=O)Nc4ccccc4C(F)(F)F)c(N)c3cc2C1`, for which the survival is inactive: 150%.

Regarding `COc1ccccc1Cc1nc2ccccc2nc1SCC(=O)NCc1ccccc1Cl`, the survival was inactive: 135%.

For `O=C(O)C1CCCN1C(=O)C12CC3CC(CC(C3)C1)C2` (centres undefined), the survival is inactive: 74%.

With `N=Nc1c(O)n(CC(=O)Nc2ccccc2)c2ccccc12`, the survival was inactive: 87%.

Turning to `CCOC(=O)CC(=O)CSc1nc2ccccc2c(=O)n1CCc1ccc(S(N)(=O)=O)cc1`, the survival is inactive: 76%.

With `CC1CCCCN1CCCNC(=O)c1cc(Sc2ccc(Cl)cc2)nc2ccccc12` (centres undefined), the survival was inactive: 94%.

As for `COc1ccc(-c2noc(-c3ccc(NCC4CCCO4)c([N+](=O)[O-])c3)n2)cc1OC` (centres undefined), the survival is inactive: 54%.

`COc1ccccc1CNC(=O)c1oc2ccc3c(c2c1C)C(=O)CC(C)(C)O3`: the survival was inactive: 56%.

In the case of `CC(=O)Nc1ccc(NC(=O)CCS(=O)(=O)c2ccc3c(c2)CC(=O)N3C)cc1`, the survival was inactive: 84%.

Take `CC(Oc1ccccc1)C(=O)N1CCCC1` (centres undefined): the survival was inactive: 84%.

For the compound `CCn1nnc(NC(=O)c2ccccc2)n1`, the survival is inactive: 86%.

Take `COc1ccccc1C(=O)OCc1cc(=O)n2nc(C(C)C)sc2n1`: the survival is inactive: 83%.

As to `O=C1C(c2ccnc3ccccc23)=C(O)c2ccccc21`, the survival is inactive: 84%.

As to `CCCCC1CCC(C(=O)N2CC(=O)Nc3ccc(Cl)cc3C2c2ccc(F)cc2)CC1` (centres undefined), the survival is active: 40%.

With `Cc1ccc(-n2c(=O)c3c4c(sc3n(CC(=O)Nc3ccccc3C)c2=O)CCCCC4)cc1C`, the survival is inactive: 115%.

Regarding `Nc1nnc(CCN2C(=O)CSC2=O)s1`, the survival is inactive: 95%.

Turning to `CCN(CC)c1ccc(-c2nc(-c3ccco3)no2)cc1[N+](=O)[O-]`, the survival is inactive: 47%.

With `CCC(C)NC(=O)c1sc2nc(C)c(C(=O)Nc3ccc(C)cc3C)c(-c3ccccc3Cl)c2c1N` (centres undefined), the survival is inactive: 67%.

Take `Nc1ccc2nc(CCc3ccccc3)[nH]c2c1`: the survival is inactive: 76%.

Turning to `COc1ccc(NC(=O)c2cnc(N3CCCCC3)c3ccccc23)cc1Cl`, the survival is inactive: 78%.

Turning to `Cc1ccc(C)c(CNC(=O)c2cc3ccccn3n2)c1`, the survival is inactive: 67%.

For `COc1ccc(NC(=O)Cn2cc(S(=O)(=O)Cc3ccc(F)cc3)c3ccccc32)cc1OC`, the survival was inactive: 71%.

As for `CCOC(=O)C1CCC(CN(Cc2cccc(Br)c2)S(=O)(=O)c2ccc(Cl)cc2)CC1` (centres undefined), the survival was inactive: 91%.

Turning to `C/C(=N\NC(=O)Cc1ccc(Cl)cc1)c1ccccc1O`, the survival was inactive: 82%.

For the compound `CCOC(=O)N1CCc2c(sc3c2C(=O)NC(c2ccccc2F)N3)C1` (centres undefined), the survival was inactive: 62%.

On to `COc1ccc(N2CC(NC(=O)COc3ccc4ccccc4c3)CC2=O)cc1OC` (centres undefined), for which the survival was inactive: 80%.

As for `CCN1C(=O)C(Cc2nc3ccccc3c(=O)n2-c2ccc(OC)cc2)c2ccccc21` (centres undefined), the survival is inactive: 70%.

For `CC1Cc2cc(S(=O)(=O)NCc3ccc(N(C)C)cc3)ccc2N1C(=O)C1CCC1` (centres undefined), the survival is inactive: 90%.

On to `O=C(Nc1ccc(Cl)cc1)N1CCC(c2ccccc2)C1` (centres undefined), for which the survival was inactive: 67%.

Consider `COc1ccc(C(=O)/C=C\Nc2ccc(S(=O)(=O)N=C(N)N)cc2)cc1OC`, for which the survival is inactive: 76%.

Regarding `c1ccc2c(c1)CC(N1CCCCC1)c1ccccc1N2` (centres undefined), the survival is inactive: 101%.

In the case of `CCCN(C(=O)Cn1ncc2c([nH]c3ccc(C)cc32)c1=O)c1ccccc1C`, the survival was inactive: 80%.

In the case of `Cc1cc(-c2ccc(S(=O)(=O)Nc3ccc(Cl)cc3C)cc2)on1`, the survival is inactive: 94%.

Turning to `COc1cccc(N2CC(NC(=O)/C=C\c3ccc(OC)c(OC)c3)CC2=O)c1` (centres undefined), the survival is inactive: 69%.

Take `CCOc1ccccc1NC(=O)c1c(NCc2sccc2C)sc2c1CCC(C)C2` (centres undefined): the survival was inactive: 98%.

As to `CCC(C)NC(=O)CN1C(=O)COc2ccc(S(=O)(=O)N3CCOCC3)cc21` (centres undefined), the survival was inactive: 82%.

Turning to `Cn1cc(S(=O)(=O)N2CCCCC2)cc1C(=O)Nc1cccc(C#N)c1`, the survival is inactive: 131%.

Consider `CCOC(=O)c1cccc2c1N[C@@H](c1ccc(F)cc1)[C@H]1CC=C[C@@H]21`, for which the survival was active: 4%.

In the case of `Cc1ccc(CNC(=O)Cn2c(=O)n(Cc3ccc(F)cc3)c(=O)c3sc4ccccc4c32)cc1`, the survival is inactive: 92%.

On to `c1ccc(Cn2nnnc2CN2CCCC2)cc1`, for which the survival was inactive: 100%.

Regarding `CCCCN(CC)C(=O)c1cc2c(=O)n3cccc(C)c3nc2s1`, the survival was inactive: 54%.

In the case of `Cc1cc(C)cc(NC(=O)CCC(=O)N2CCSc3ccccc32)c1`, the survival is inactive: 54%.

For `CCC(C)(C)C(=O)Nc1ccccc1C(C)C`, the survival is inactive: 95%.

Take `Clc1ccc2nc(-c3ccccc3)c(NCc3ccco3)n2c1`: the survival was inactive: 97%.

As for `O=C(O)/C(=C\c1ccccc1)NC(=O)c1ccccc1`, the survival is inactive: 100%.

As to `CCCCSc1nnc2c(n1)OC(C)N(C(C)=O)c1ccccc1-2` (centres undefined), the survival was inactive: 154%.

With `CCc1ccccc1NC(=O)CC1Sc2ccc(C(F)(F)F)cc2NC1=O` (centres undefined), the survival is inactive: 82%.

With `C/C=C/C(=O)N1CCCC(c2nc(-c3cccc(OC)c3)no2)C1` (centres undefined), the survival is inactive: 79%.

`COc1ccc(CCNC(=O)C2COc3ccccc3C2)cc1OC` (centres undefined): the survival was inactive: 75%.

For `COc1ccc(CCNC(=O)Cc2c(C)c3cc4c(C)coc4c(C)c3oc2=O)cc1`, the survival is inactive: 98%.

Turning to `Cn1c(Oc2ccc(Cl)cc2)nc2c1c(=O)n(Cc1ccc(F)cc1)c(=O)n2C`, the survival was inactive: 48%.

For the compound `COc1ccc(C(=O)NC(c2ccc(Cl)cc2)c2cc(Cl)c3cccnc3c2O)cc1` (centres undefined), the survival is inactive: 88%.

For `Cc1oc2ccc(O)c(CN3CCOCC3)c2c1C(=O)Nc1cccc(Cl)c1C`, the survival was inactive: 89%.

As to `CCNC(=O)Cn1nc(C)n2c(cc3c(OC)cccc32)c1=O`, the survival is inactive: 98%.

As to `Cc1cc(C)n(C(C)CC(=O)NCc2ccc(Cl)cc2)n1` (centres undefined), the survival was inactive: 69%.

Turning to `Cc1ccc(OCCCSc2nc(-c3ccc(C(C)(C)C)cc3)nc3cc(=O)[nH]n23)cc1C`, the survival is inactive: 58%.

`Cc1ccc(OCC(=O)OCc2cc(=O)n3nc(C4CC4)sc3n2)cc1`: the survival was inactive: 86%.

With `Cc1ccc(Nc2ccc(N3CCN(C(=O)c4ccc([N+](=O)[O-])cc4)CC3)nn2)cc1`, the survival was inactive: 85%.

For `Cc1cc(C(c2nnnn2Cc2ccccc2)N2CCOCC2)c(C)n1-c1ccc2c(c1)OCO2` (centres undefined), the survival was inactive: 78%.

Turning to `Cc1cccn2c(=O)c3cc(C(=O)Nc4ccc(Cl)c(Cl)c4)sc3nc12`, the survival was inactive: 62%.

As to `Cn1c(SCc2ccc(Br)cc2)nc2c([nH]c3ccccc32)c1=O`, the survival is inactive: 119%.

Consider `Cc1ccc(S(=O)(=O)NCCc2csc(-c3cccc(F)c3)n2)cc1`, for which the survival was inactive: 86%.

As for `O=C(c1ccc(Nc2nc3ccccc3n3nnnc23)cc1)N1CCN(c2cccc(C(F)(F)F)c2)CC1`, the survival is inactive: 57%.

For `CCOC(=O)c1cccc(NS(=O)(=O)c2cc3c(cc2C)NC(=O)CO3)c1`, the survival is inactive: 84%.

As for `Cc1ccc(NC(=O)CN2C(=O)CC(C)Sc3ccccc32)c(C)c1` (centres undefined), the survival is inactive: 81%.

Turning to `Cc1nc2ccn(Cc3ccco3)c(=O)c2cc1C(=O)NCc1ccc(F)cc1`, the survival is inactive: 79%.

Turning to `CCC(c1nnnn1Cc1ccccc1)N1CCN(c2cccc(Cl)c2)CC1` (centres undefined), the survival was inactive: 89%.

In the case of `Cc1ccc(C)c(NS(=O)(=O)c2cc3c4c(c2)C(C)C(=O)N4CCC3)c1` (centres undefined), the survival was inactive: 106%.

As to `CCCCNC(=O)Cc1ccc(Br)cc1`, the survival was inactive: 94%.

Turning to `CN(C)CCCNC1CS(=O)(=O)CC1O` (centres undefined), the survival is inactive: 101%.

Take `O=C(CC1N=C2c3ccccc3N=C(SCC(=O)Nc3ccc(F)cc3)N2C1=O)NCc1cccs1` (centres undefined): the survival is inactive: 76%.

Regarding `COCCCNC(=O)C1CCN(c2cc(C)nc3c(-c4ccc(Cl)cc4)c(C)nn23)CC1`, the survival is inactive: 80%.

Consider `CCN(CC)CCCNC(=O)c1ccc2c(Cl)c3c(nc2c1)CCCC3`, for which the survival was inactive: 105%.

As to `CCOC(=O)Cn1c(=O)n(-c2ccccc2OC)c2nc(-c3ccc(C(C)C)cc3)nc(C(N)=O)c21`, the survival was inactive: 86%.

`O=C1C(=Cc2ccc3c(c2)OCO3)C(=O)c2ccccc21`: the survival was inactive: 64%.

In the case of `CC(C)CC1Nc2ccc(C(=O)NCCCOC(C)C)cc2NC1=O` (centres undefined), the survival is inactive: 65%.

Source of the values: PubChem BioAssay AID463173 (ICCB-Longwood Screening Facility, Harvard Medical School, 2010).
